Source: the supplement of paper PMC8728848
This is one part of the list.

Key:
Experiment in all cases: glycan array binding signal (z-score within array); higher = stronger binding
Conditions in all cases: glycan notation: IUPAC condensed, linker removed
[1] = biological target: Gal(b1-3)GlcNAc(b1-2)Man(a1-3)[Gal(b1-3)GlcNAc(b1-2)Man(a1-6)]Man(b1-4)GlcNAc(b1-4)GlcNAc
Outline: (§1)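 The binding signal is a Z-score computed within each array. Data were drawn from 3228 arrays in the Consortium for Functional Glycomics database, restricted to those with a known protein sequence. Scores were averaged over arrays of the same protein sequence at different concentrations or buffers, and over linkers, and negative values can be taken as non-binding.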

[2] = biological target: Gal(b1-3)GlcNAc(b1-2)Man(a1-3)[Gal(b1-3)GlcNAc(b1-2)Man(a1-6)]Man(b1-4)GlcNAc(b1-4)[Fuc(a1-6)]GlcNAc
Outline: as §1

[3] = biological target: Gal(b1-3)GlcNAc(b1-2)Man(a1-3)[GlcNAc(b1-4)][Gal(b1-3)GlcNAc(b1-2)Man(a1-6)]Man(b1-4)GlcNAc(b1-4)GlcNAc
Outline: as §1

[4] = biological target: Gal(b1-3)GlcNAc(b1-2)[Gal(b1-3)GlcNAc(b1-6)]Man(a1-6)[Gal(b1-3)GlcNAc(b1-2)Man(a1-3)]Man(b1-4)GlcNAc(b1-4)GlcNAc
Outline: as §1

[5] = biological target: Gal(b1-3)GlcNAc(b1-3)Gal(b1-3)GlcNAc
Outline: as §1

[6] = biological target: Gal(b1-3)GlcNAc(b1-3)Gal(b1-4)Glc
Outline: as §1

[7] = biological target: Gal(b1-3)GlcNAc(b1-3)Gal(b1-4)GlcNAc
Outline: as §1

[8] = biological target: Gal(b1-3)GlcNAc(b1-3)Gal(b1-4)GlcNAc(b1-2)Man(a1-3)[Gal(b1-3)GlcNAc(b1-3)Gal(b1-4)GlcNAc(b1-2)Man(a1-6)]Man(b1-4)GlcNAc(b1-4)GlcNAc
Outline: as §1

[9] = biological target: Gal(b1-3)GlcNAc(b1-3)Gal(b1-4)GlcNAc(b1-2)[Gal(b1-3)GlcNAc(b1-3)Gal(b1-4)GlcNAc(b1-6)]Man(a1-6)[Gal(b1-3)GlcNAc(b1-3)Gal(b1-4)GlcNAc(b1-2)Man(a1-3)]Man(b1-4)GlcNAc(b1-4)[Fuc(a1-6)]GlcNAc
Outline: as §1

[10] = biological target: Gal(b1-3)GlcNAc(b1-3)Gal(b1-4)GlcNAc(b1-3)Gal(b1-4)GlcNAc(b1-2)[Gal(b1-3)GlcNAc(b1-3)Gal(b1-4)GlcNAc(b1-3)Gal(b1-4)GlcNAc(b1-6)]Man(a1-6)[Gal(b1-3)GlcNAc(b1-3)Gal(b1-4)GlcNAc(b1-3)Gal(b1-4)GlcNAc(b1-2)Man(a1-3)]Man(b1-4)GlcNAc(b1-4)[Fuc(a1-6)]GlcNAc
Outline: as §1

[11] = biological target: Gal(b1-3)GlcNAc(b1-3)Gal(b1-4)GlcNAc(b1-6)[Gal(b1-3)GlcNAc(b1-3)]Gal(b1-4)Glc
Outline: as §1

[12] = biological target: Gal(b1-3)GlcNAc(b1-3)Gal(b1-4)[Fuc(a1-3)]GlcNAc
Outline: as §1

[13] = biological target: Gal(b1-3)GlcNAc(b1-3)Gal(b1-4)[Fuc(a1-3)]GlcNAc(b1-6)[Gal(b1-3)GlcNAc(b1-3)]Gal(b1-4)Glc
Outline: as §1

[14] = biological target: Gal(b1-3)GlcNAc(b1-3)GalNAc
Outline: as §1

[15] = biological target: Gal(b1-3)GlcNAc(b1-6)Gal(b1-4)GlcNAc
Outline: as §1

[16] = biological target: Gal(b1-3)GlcNAc(b1-6)GalNAc
Outline: as §1

[17] = biological target: Gal(b1-3)GlcNAc(b1-6)[Gal(b1-3)]GalNAc
Outline: as §1

Gal(b1-3)GlcNAc6S = biological target: Gal(b1-3)GlcNAc6S
Outline: as §1

[18] = biological target: Gal(b1-3)[Fuc(a1-4)]GlcNAc
Outline: as §1

[19] = biological target: Gal(b1-3)[Fuc(a1-4)]GlcNAc(b1-2)Man
Outline: as §1

[20] = biological target: Gal(b1-3)[Fuc(a1-4)]GlcNAc(b1-2)Man(a1-3)[Gal(b1-3)[Fuc(a1-4)]GlcNAc(b1-2)Man(a1-6)]Man(b1-4)GlcNAc(b1-4)[Fuc(a1-6)]GlcNAc
Outline: as §1

[21] = biological target: Gal(b1-3)[Fuc(a1-4)]GlcNAc(b1-3)Gal(b1-3)[Fuc(a1-4)]GlcNAc
Outline: as §1

[22] = biological target: Gal(b1-3)[Fuc(a1-4)]GlcNAc(b1-3)Gal(b1-4)GlcNAc
Outline: as §1

[23] = biological target: Gal(b1-3)[Fuc(a1-4)]GlcNAc(b1-3)Gal(b1-4)[Fuc(a1-3)]GlcNAc
Outline: as §1

[24] = biological target: Gal(b1-3)[Fuc(a1-4)]GlcNAc(b1-6)GalNAc
Outline: as §1

[25] = biological target: Gal(b1-3)[GlcNAc(b1-6)]GalNAc
Outline: as §1

[26] = biological target: Gal(b1-3)[GlcNAc(b1-6)]GlcNAc
Outline: as §1

[27] = biological target: Gal(b1-3)[Neu5Ac(a2-6)]GalNAc
Outline: as §1

[28] = biological target: Gal(b1-3)[Neu5Ac(a2-6)]GlcNAc
Outline: as §1

[29] = biological target: Gal(b1-3)[Neu5Ac(a2-6)]GlcNAc(a1-4)Gal(b1-4)Glc
Outline: as §1

[30] = biological target: Gal(b1-3)[Neu5Ac(a2-6)]GlcNAc(b1-4)Gal(b1-4)Glc
Outline: as §1

[31] = biological target: Gal(b1-3)[Neu5Ac(b2-6)]GalNAc
Outline: as §1

[32] = biological target: Gal(b1-3)[Neu5Ac(b2-6)]GlcNAc
Outline: as §1

Gal(b1-4)Gal = biological target: Gal(b1-4)Gal
Outline: as §1

[33] = biological target: Gal(b1-4)GalNAc(a1-3)[Fuc(a1-2)]Gal(b1-4)GlcNAc
Outline: as §1

[34] = biological target: Gal(b1-4)GalNAc(b1-3)[Fuc(a1-2)]Gal(b1-4)GlcNAc
Outline: as §1

Gal(b1-4)Glc = biological target: Gal(b1-4)Glc
Outline: as §1

Gal(b1-4)Glc6S = biological target: Gal(b1-4)Glc6S
Outline: as §1

Gal(b1-4)GlcNAc = biological target: Gal(b1-4)GlcNAc
Outline: as §1

[35] = biological target: Gal(b1-4)GlcNAc(a1-6)Gal(b1-4)GlcNAc
Outline: as §1

Gal(b1-4)GlcNAc(b1-2)Man = biological target: Gal(b1-4)GlcNAc(b1-2)Man
Outline: as §1

[36] = biological target: Gal(b1-4)GlcNAc(b1-2)Man(a1-3)Man(b1-4)GlcNAc(b1-4)GlcNAc
Outline: as §1

[37] = biological target: Gal(b1-4)GlcNAc(b1-2)Man(a1-3)[Gal(b1-4)GlcNAc(b1-2)Man(a1-6)]Man(b1-4)GlcNAc(b1-4)GlcNAc
Outline: as §1

[38] = biological target: Gal(b1-4)GlcNAc(b1-2)Man(a1-3)[Gal(b1-4)GlcNAc(b1-2)Man(a1-6)]Man(b1-4)GlcNAc(b1-4)[Fuc(a1-6)]GlcNAc
Outline: as §1

[39] = biological target: Gal(b1-4)GlcNAc(b1-2)Man(a1-3)[Gal(b1-4)GlcNAc(b1-2)Man(a1-6)][Gal(b1-4)GlcNAc(b1-4)]Man(b1-4)GlcNAc(b1-4)[Fuc(a1-6)]GlcNAc
Outline: as §1

B1: OVGAL11 (Ovis aries), AAF64320 (protein)
chain: MDSLPNPYLQSVSLTVCYMVKIKANLLSAFGKNPELQVDFGTGTGQGGNIPFRFWYCDGMVVMNTFTDGSWQKEEKVLTDAFVPGQPFELQFLVLEKEYQVFVKNKPICQFAHRLPLQSVKMLDVRGDIVLTSVDTL
glycan array binding signal (z-score) [1]: -0.087
glycan array binding signal (z-score) [2]: -0.047
glycan array binding signal (z-score) [3]: -0.055
glycan array binding signal (z-score) [4]: -0.102
glycan array binding signal (z-score) [5]: -0.065
glycan array binding signal (z-score) [6]: -0.117
glycan array binding signal (z-score) [7]: -0.059
glycan array binding signal (z-score) [8]: -0.054
glycan array binding signal (z-score) [9]: -0.06
glycan array binding signal (z-score) [10]: 0.112
glycan array binding signal (z-score) [11]: -0.113
glycan array binding signal (z-score) [12]: -0.014
glycan array binding signal (z-score) [13]: -0.069
glycan array binding signal (z-score) [14]: -0.116
glycan array binding signal (z-score) [15]: -0.118
glycan array binding signal (z-score) [16]: -0.108
glycan array binding signal (z-score) [17]: -0.119
glycan array binding signal (z-score) (Gal(b1-3)GlcNAc6S): -0.107
glycan array binding signal (z-score) [18]: -0.207
glycan array binding signal (z-score) [19]: -0.128
glycan array binding signal (z-score) [20]: -0.037
glycan array binding signal (z-score) [21]: -0.101
glycan array binding signal (z-score) [22]: 0.252
glycan array binding signal (z-score) [23]: -0.07
glycan array binding signal (z-score) [24]: -0.005
glycan array binding signal (z-score) [25]: -0.224
glycan array binding signal (z-score) [26]: -0.523
glycan array binding signal (z-score) [27]: -0.076
glycan array binding signal (z-score) [28]: -0.295
glycan array binding signal (z-score) [29]: -0.608
glycan array binding signal (z-score) [30]: -0.08
glycan array binding signal (z-score) [31]: -0.098
glycan array binding signal (z-score) [32]: -0.253
glycan array binding signal (z-score) (Gal(b1-4)Gal): -0.059
glycan array binding signal (z-score) [33]: -0.339
glycan array binding signal (z-score) [34]: -0.056
glycan array binding signal (z-score) (Gal(b1-4)Glc): -0.271
glycan array binding signal (z-score) (Gal(b1-4)Glc6S): -0.046
glycan array binding signal (z-score) (Gal(b1-4)GlcNAc): -0.07
glycan array binding signal (z-score) [35]: -0.084
glycan array binding signal (z-score) (Gal(b1-4)GlcNAc(b1-2)Man): -0.12
glycan array binding signal (z-score) [36]: -0.101
glycan array binding signal (z-score) [37]: -0.186
glycan array binding signal (z-score) [38]: -0.113
glycan array binding signal (z-score) [39]: -0.011
